Results published in PubChem BioAssay AID1460 (National Center for Advancing Translational Sciences (NCATS), 2008).
“And” between values parts separate entries of the source, which are not always exact repeats. Equal entries are not always repeated. In all, about 270,000 compounds went through this assay and about 5,800 (2.1%) were called active. Inconclusive results, whose numbers are uncertain, are shown with a selection of clear calls. The call rests on the fitted dose curve; in most records, active means well fitted inhibition curve with a large enough effect; inconclusive means small, poorly fitted or top-dose-only effect; inactive means flat fitted curve, though single readings scatter. Where the call is inconclusive, the potency comes from a doubtful curve fit.

The compounds below were run against Microtubule-associated protein tau (Homo sapiens) (UniProt P10636) (assay: qHTS for Inhibitors of Tau Fibril Formation, Thioflavin T Binding). Conditions: recombinant tau K18 P301L (four-repeat tau fragment), heparin-induced fibrillization, ThT fluorescence; series mostly up to 57.4 µM.
In short: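 Heparin-induced (20 uM) aggregation of recombinant human K18 P301L tau, 15 uM unlabeled with 0.24 uM labeled, pH 7 acetate buffer, 6 hr at 37 C with compound. Fibrils quantified by 30 uM ThT fluorescence after 1 hr ambient incubation.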
Further: nearly all actives have a fitted effect of over 55% in size.
Potency means the concentration at half of the fitted maximal effect; tags describe the fitted curve by direction and shape.

Chain of UniProt P10636 (P10636 whole entry, looked up, the tested form may be a part): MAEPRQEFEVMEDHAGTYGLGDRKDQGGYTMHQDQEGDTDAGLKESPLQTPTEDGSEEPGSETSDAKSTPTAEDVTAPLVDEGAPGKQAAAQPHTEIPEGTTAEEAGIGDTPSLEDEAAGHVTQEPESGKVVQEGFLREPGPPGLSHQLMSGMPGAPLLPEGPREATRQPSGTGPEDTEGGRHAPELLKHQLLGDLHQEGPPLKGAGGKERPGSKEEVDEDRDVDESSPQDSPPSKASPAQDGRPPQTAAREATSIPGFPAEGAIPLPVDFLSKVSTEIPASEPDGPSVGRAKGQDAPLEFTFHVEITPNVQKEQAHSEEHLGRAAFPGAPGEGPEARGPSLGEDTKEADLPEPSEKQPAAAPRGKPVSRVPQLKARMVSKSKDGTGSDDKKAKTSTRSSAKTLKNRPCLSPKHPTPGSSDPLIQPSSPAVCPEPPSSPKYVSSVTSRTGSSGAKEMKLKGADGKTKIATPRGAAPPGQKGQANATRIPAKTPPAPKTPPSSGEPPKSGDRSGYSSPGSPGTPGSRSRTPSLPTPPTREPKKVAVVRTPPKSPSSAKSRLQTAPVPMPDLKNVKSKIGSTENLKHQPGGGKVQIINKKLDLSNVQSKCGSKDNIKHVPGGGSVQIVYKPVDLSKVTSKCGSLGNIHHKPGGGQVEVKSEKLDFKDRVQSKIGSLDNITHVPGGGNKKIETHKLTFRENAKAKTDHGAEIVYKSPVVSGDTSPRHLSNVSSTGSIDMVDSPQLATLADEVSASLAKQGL

How did the Potency turn out when `CCN(CCCNC(=O)c1ccc(N2CCCC2=O)cc1)c1cccc(C)c1` was run?
Its Potency is inconclusive: 6.31 µM [inhibitor, partial curve].

`O=C(COC(=O)c1c2c(nc3ccccc13)CCCC2)Nc1ccc2c(c1)OCO2` was tested. Which Potency did it give?
The Potency was inconclusive: 2.82 µM [inhibitor, full curve].

Which Potency does the source give for `O=C(NCc1ccccc1)/C(=N\O)c1ccccc1` here?
The Potency was “inactive”.

`Cc1c(-c2nsc(NC(=O)c3ccc(Cl)cc3)n2)nnn1-c1ccc(C(C)C)cc1` was tested. Which Potency did it give?
Its Potency is inconclusive: 0.631 µM [inhibitor, full curve].

How did the Potency turn out when `CC(Cc1cccs1)NC(=O)Nc1ccc(Cl)c(Cl)c1` (configuration not stated) was run?
Its Potency is “inactive”.

Which Potency does the source give for `COc1ccc(S(=O)(=O)c2cn(C)c3cc(N4CCCCC4)c(F)cc3c2=O)cc1` here?
The Potency was “inactive”.

For `COc1cc(NC(=O)c2cc(-c3ccc4c(c3)OCO4)on2)cc(OC)c1OC`, which Potency is on record?
Its Potency is inconclusive: 0.631 µM [inhibitor, full curve].

Which Potency does the source give for `CC1CCN(c2ccc([N+](=O)[O-])cc2C(N)=O)CC1` here?
Its Potency is “inactive”.

For `COc1ccc(N(CC(=O)NCCC2=CCCCC2)S(C)(=O)=O)cc1`, which Potency is on record?
The Potency was “inactive”.

Which Potency does the source give for `O=C(c1ccco1)N1CCN(c2nc3ccccc3n3nnnc23)CC1` here?
Its Potency is inconclusive: 22.4 µM [inhibitor, partial curve].

How did the Potency turn out when `CC(C)=CCC/C(C)=C/C=N/NC(=O)c1cccc([N+](=O)[O-])c1` was run?
Its Potency is inconclusive: 2.51 µM [inhibitor, full curve].

Which Potency does the source give for `COc1ccc(N2CCN(CCCNC(=O)C3COc4ccc(OC)cc4C3)CC2)cc1` (configuration not stated) here?
Its Potency is “inactive”.

`CCc1cccc2c(-c3ccccc3)nc(SCC(=O)Nc3ccccc3)nc12` was tested. Which Potency did it give?
Its Potency is “inactive”.

`O=C(Cn1cc(SCc2ccc(C(F)(F)F)cc2)c2ccccc21)N1CCCCC1` was tested. Which Potency did it give?
Its Potency is inconclusive: 20 µM [inhibitor, partial curve].

How did the Potency turn out when `O=C1NC(=O)C2C1C(c1ccc([N+](=O)[O-])cc1)=NN2Cc1ccccc1` (configuration not stated) was run?
Its Potency is inconclusive: 31.6 µM [inhibitor, single point].

For `Cc1ccc(Nc2c(-c3ccc(N(C)C)cc3)nc3ncccn23)cc1`, which Potency is on record?
The Potency was inconclusive: 35.5 µM [inhibitor, partial curve, poor fit].

For `Cc1ccc(S(=O)(=O)CCSc2nccn2C)cc1`, which Potency is on record?
The Potency was “inactive”.

Which Potency does the source give for `C/C(=N\NC(=O)c1cc2ccccc2cc1O)c1cc2ccccc2o1` here?
The Potency was active: 3.55 µM.

`COC(=O)C1C(=O)C(C(=O)/C=C/c2ccccc2)C(=O)CC1(C)C` (configuration not stated) was tested. Which Potency did it give?
The Potency was “inactive”.

Which Potency does the source give for `Cc1cc(Cl)ccc1NC(=S)NCc1ccc(Cl)cc1` here?
The Potency was “inactive”.

With `CCOC(=O)c1noc2ncnc(Nc3ccc(C)c(F)c3)c12` as the compound, how does the Potency read?
The Potency was “inactive”.

How did the Potency turn out when `COc1cccc(Nc2cc(N3CCOCC3)c3nonc3c2[N+](=O)[O-])c1` was run?
Its Potency is inconclusive: 2.51 µM [inhibitor, full curve, poor fit].

How did the Potency turn out when `COc1ccc2c(c1)-c1nc(NC(=O)c3ccco3)sc1CC2` was run?
Its Potency is inconclusive: 15.8 µM [inhibitor, partial curve].

With `COc1cc2c(cc1OC)CN(Cc1cc(=O)n3cc(C)ccc3n1)CC2` as the compound, how does the Potency read?
The Potency was inconclusive: 28.2 µM [inhibitor, partial curve].

With `O=C(Nc1nnc(-c2cccs2)o1)c1ccco1` as the compound, how does the Potency read?
The Potency was “inactive”.

For `COc1ccc(-c2cc(C(F)(F)F)c(C#N)c(SCC(=O)Nc3ccc(C)cc3)n2)cc1`, which Potency is on record?
Its Potency is “inactive”.

Which Potency does the source give for `COc1cc(NC(=O)c2ccc(Cl)cc2)c(OC)cc1NC(=O)CN1CCOCC1` here?
Its Potency is inconclusive: 22.4 µM [inhibitor, partial curve].

`Cc1ccc(SCC(=O)NCCC2=CCCCC2)cc1` was tested. Which Potency did it give?
The Potency was inconclusive: 22.4 µM [inhibitor, single point].

Which Potency does the source give for `O=C(CCc1ccccc1)NC(NC(=S)Nc1ccc(Cl)cc1)C(Cl)(Cl)Cl` (configuration not stated) here?
Its Potency is “inactive”.

With `CCN(Cc1ccccc1)C(=O)c1ccc(CNS(=O)(=O)c2ccc(C)cc2)cc1` as the compound, how does the Potency read?
The Potency was inconclusive: 6.31 µM [inhibitor, partial curve].

With `COc1cccc(/C=C/C(=O)Nc2cccc(C(C)=O)c2)c1OC` as the compound, how does the Potency read?
Its Potency is inconclusive: 7.08 µM [inhibitor, partial curve].

How did the Potency turn out when `O=C(NC1CC(=O)N(c2ccccc2)C1)C1CCCCC1` (configuration not stated) was run?
The Potency was “inactive”.

For `Cc1ccccc1OCCSCc1nc2ccccc2[nH]1`, which Potency is on record?
Its Potency is “inactive”.

With `CCCCCC(=O)c1ccc(O)cc1O` as the compound, how does the Potency read?
The Potency was “inactive”.

For `Cc1ccc(S(=O)(=O)Nc2nc(C)c(NC(=O)Nc3ccc(Cl)cc3Cl)s2)cc1`, which Potency is on record?
Its Potency is active: 22.4 µM.

`COc1ccc(N/C=C\C(=O)c2ccc3c(c2)OCO3)cc1OC` was tested. Which Potency did it give?
Its Potency is active: 2.82 µM.

For `COc1cc(C[C@H](C)[C@H](C)Cc2ccc3c(c2)OCO3)ccc1O`, which Potency is on record?
Its Potency is inconclusive: 1 µM [inhibitor, partial curve].

`O=C(c1ccccc1)c1ccc(OCC(O)CN2CCN(S(=O)(=O)N3CCCCC3)CC2)cc1` (configuration not stated) was tested. Which Potency did it give?
Its Potency is inconclusive: 22.4 µM [inhibitor, partial curve].

Which Potency does the source give for `COc1ccccc1NC(=O)c1c(NCc2sccc2C)sc2c1CCCCC2` here?
The Potency was inconclusive: 20 µM [inhibitor, partial curve].

With `CCN1CCN(C(c2ccc(OC)cc2)c2c(O)cc(C)n(CCOC)c2=O)CC1` (configuration not stated) as the compound, how does the Potency read?
Its Potency is inconclusive: 11.2 µM [inhibitor, partial curve].

`COc1ccc(NC(=O)c2ccc(-c3ccc(-c4noc(C)n4)cc3C)cc2)cc1OCCN(C)C` was tested. Which Potency did it give?
Its Potency is “inactive and inconclusive: 39.8 µM [inhibitor, single point]”.

`CCOC(=O)c1c(C)oc2ccc(N(C(=O)Oc3ccccc3)S(=O)(=O)c3ccccc3)cc12` was tested. Which Potency did it give?
Its Potency is “inactive”.

How did the Potency turn out when `O=C(NC1CCN(C(=O)N2c3ccccc3Sc3ccccc32)CC1)c1ccccc1F` was run?
The Potency was inconclusive: 12.6 µM [inhibitor, partial curve, poor fit].

How did the Potency turn out when `CSc1ccc(CCNc2ncnc3onc(C)c23)cc1` was run?
The Potency was “inactive”.

`O=C(CSc1nc(O)cc(=O)[nH]1)N1c2ccccc2Sc2ccccc21` was tested. Which Potency did it give?
The Potency was inconclusive: 15.8 µM [inhibitor, partial curve].

How did the Potency turn out when `COc1ccc2c(=O)c(-c3cnn(-c4ccccc4)c3)c(C)oc2c1` was run?
The Potency was inconclusive: 0.631 µM [inhibitor, full curve].

`COc1cccc(C(=O)NC(=S)Nc2ccc3c4c(cccc24)CC3)c1` was tested. Which Potency did it give?
Its Potency is inconclusive: 11.2 µM [inhibitor, partial curve].
